# A collection of fitness landscapes (doi:10.1126/science.1257360)
# The list shows a part of the results.
# B1: PhoQ; a variant is named by its letters at X, in order, P23837 (parent)
# chain: MKKLLRLFFPLSLRVRFLLATAAVVLVLSLAYGMVALIGYSVSFDKTTFRLLRGESNLFYTLAKWENNKLHVELPENIDKQSPTMTLIYDENGQLLWAQRDVPWLMKMIQPDWLKSNGFHEIEADVNDTSLLLSGDHSIQQQLQEVREDDDDAEMTHSVAVNVYPATSRMPKLTIVVVDTIPVELKSSYMVWSWFIYVLSANLLLVIPLLWVAAWWSLRPIEALAKEVRELEEHNRELLNPATTRELTSLVRNLNRLLKSERERYDKYRTTLTDLTHSLKTPLXXLQXXLRSLRSEKMSVSDAEPVMLEQISRISQQIGYYLHRASMRGGTLLSRELHPVAPLLDNLTSALNKVYQRKGVNISLDISPEISFVGEQNDFVEVMGNVLDNACKYCLEFVEISARQTDEHLYIVVEDDGPGIPLSKREVIFDRGQRVDTLRPGQGVGLAVAREITEQYEGKIVAGESMLGGARMEVIFGRQHSAPKDE
# Variants of: B1
# Test: enrichment ratio after two sorts for PhoP signalling (ratio (wild type AVST 3.29)); higher = more functional
# Settings: with PhoP (E. coli)
row,Variant,enrichment ratio
1,TPIQ,≤ 0.25
2,VPWE,≤ 0.25
3,TDQY,0.873
4,GQAP,≤ 0.25
5,HVRF,≤ 0.25
6,DYAH,≤ 0.25
7,KYKE,≤ 0.25
8,FPRR,≤ 0.25
9,HSVR,≤ 0.25
10,PAPG,0.49
11,TYIN,≤ 0.25
12,ATSC,3.83
13,NAGE,≤ 0.25
14,SLIT,≤ 0.25
15,DLGG,≤ 0.25
16,YPKS,≤ 0.25
17,LRYQ,≤ 0.25
18,FCGQ,≤ 0.25
19,SVVG,6.29
20,RLNI,≤ 0.25
21,KPIS,≤ 0.25
22,RSKN,≤ 0.25
23,FPWE,≤ 0.25
24,YPCD,≤ 0.25
25,RTWH,≤ 0.25

row,Variant,enrichment ratio
1,EENC,≤ 0.25
2,QIMT,≤ 0.25
3,PYAR,≤ 0.25
4,PQDF,≤ 0.25
5,QPLA,≤ 0.25
6,NLSV,≤ 0.25
7,DKKV,≤ 0.25
8,FLSW,≤ 0.25
9,ACTN,4.2
10,GNQV,≤ 0.25
11,FRDQ,≤ 0.25
12,HCPP,≤ 0.25
13,QHHF,≤ 0.25
14,NMQW,≤ 0.25
15,KSAS,≤ 0.25
16,MTWG,≤ 0.25
17,DPHV,≤ 0.25
18,MNCY,≤ 0.25
19,ELEM,≤ 0.25
20,FAIQ,≤ 0.25
21,FWYA,≤ 0.25
22,TFAC,1.41
23,HVYF,≤ 0.25
24,YSHM,≤ 0.25
25,FAQD,≤ 0.25

row,Variant,enrichment ratio
1,FWIQ,≤ 0.25
2,KTHD,≤ 0.25
3,QICA,≤ 0.25
4,VVTI,0.423
5,GWPT,≤ 0.25
6,GPIP,≤ 0.25
7,VKCF,≤ 0.25
8,MRPY,≤ 0.25
9,HQPQ,≤ 0.25
10,YFAG,≤ 0.25
11,IFAA,≤ 0.25
12,NGLD,≤ 0.25
13,VKRW,≤ 0.25
14,YWTC,≤ 0.25
15,RYTR,≤ 0.25
16,TENE,8.3
17,MMIC,≤ 0.25
18,EAIQ,≤ 0.25
19,ATNS,≤ 0.25
20,WIKL,≤ 0.25
21,FWSR,≤ 0.25
22,LPGR,≤ 0.25
23,DAIL,≤ 0.25
24,PWLE,≤ 0.25
25,SLHN,≤ 0.25

row,Variant,enrichment ratio
1,TKST,15.4
2,GLKI,≤ 0.25
3,QSEG,≤ 0.25
4,WGAS,≤ 0.25
5,VKCE,≤ 0.25
6,QKSW,≤ 0.25
7,TMHP,≤ 0.25
8,TKLE,12.7
9,IMSA,≤ 0.25
10,HHMN,≤ 0.25
11,WITC,≤ 0.25
12,NAGF,≤ 0.25
13,DDFA,≤ 0.25
14,ECLV,≤ 0.25
15,KVGV,≤ 0.25
16,QMVW,≤ 0.25
17,FFMM,≤ 0.25
18,MYLV,0.307
19,HRRW,≤ 0.25
20,RQCN,≤ 0.25
21,VNFI,≤ 0.25
22,TIRN,≤ 0.25
23,MYQH,≤ 0.25
24,LHDC,≤ 0.25
25,AGPC,≤ 0.25

row,Variant,enrichment ratio
1,NMNA,≤ 0.25
2,KMNK,≤ 0.25
3,SEYS,2.4
4,FYNT,≤ 0.25
5,FEFH,≤ 0.25
6,DKRC,≤ 0.25
7,ADHV,≤ 0.25
8,DYRD,≤ 0.25
9,VGCV,2.53
10,FHNH,≤ 0.25
11,DYPT,≤ 0.25
12,FMTH,≤ 0.25
13,QRCN,≤ 0.25
14,WQGH,≤ 0.25
15,ESLD,≤ 0.25
16,LTNW,≤ 0.25
17,NSWE,≤ 0.25
18,ATPP,≤ 0.25
19,QTAN,≤ 0.25
20,RHDV,≤ 0.25
21,WTFC,≤ 0.25
22,PPHQ,≤ 0.25
23,IGKH,≤ 0.25
24,MIVD,≤ 0.25
25,LKTC,≤ 0.25

row,Variant,enrichment ratio
1,WHYH,≤ 0.25
2,IYDT,≤ 0.25
3,GHEC,≤ 0.25
4,ATFF,≤ 0.25
5,DFSG,≤ 0.25
6,LLCR,≤ 0.25
7,KQIF,≤ 0.25
8,FFQP,≤ 0.25
9,YSQQ,≤ 0.25
10,PNTL,≤ 0.25
11,FHQY,≤ 0.25
12,SHQS,≤ 0.25
13,MEMP,≤ 0.25
14,QTNQ,≤ 0.25
15,MREY,≤ 0.25
16,FHFF,≤ 0.25
17,PCGR,≤ 0.25
18,TELQ,10
19,TWIP,≤ 0.25
20,TSDD,≤ 0.25
21,KITY,≤ 0.25
22,RRPG,≤ 0.25
23,TVWM,≤ 0.25
24,PMNK,≤ 0.25
25,SDEF,≤ 0.25

row,Variant,enrichment ratio
1,KYRM,≤ 0.25
2,VGNP,≤ 0.25
3,KYVA,≤ 0.25
4,KYAV,≤ 0.25
5,MCGA,5.94
6,FEMI,13
7,HHHI,≤ 0.25
8,IRCA,≤ 0.25
9,EHTL,≤ 0.25
10,SESG,28.9
11,AVCA,6.97
12,LITV,≤ 0.25
13,WAFP,≤ 0.25
14,AGDA,≤ 0.25
15,PWPA,≤ 0.25
16,FMER,≤ 0.25
17,WVWS,≤ 0.25
18,FCMQ,1.02
19,KFVP,≤ 0.25
20,LCTH,≤ 0.25
21,QICS,≤ 0.25
22,GMTC,≤ 0.25
23,MDMN,≤ 0.25
24,SEEP,≤ 0.25
25,KYKV,≤ 0.25

row,Variant,enrichment ratio
1,AVGP,≤ 0.25
2,QNVD,≤ 0.25
3,YKCV,≤ 0.25
4,EPAY,≤ 0.25
5,FTCM,7.68
6,RAHD,≤ 0.25
7,NRWD,≤ 0.25
8,APPL,≤ 0.25
9,ARLI,2.97
10,EYYN,≤ 0.25
11,FHMC,≤ 0.25
12,CSPS,≤ 0.25
13,LWYN,≤ 0.25
14,YMVY,≤ 0.25
15,VLKW,≤ 0.25
16,LQWW,≤ 0.25
17,DIPN,≤ 0.25
18,FVKW,≤ 0.25
19,WEPK,≤ 0.25
20,RYLP,≤ 0.25
